Reference: the BET-seq Pho4 binding data (Le et al. 2018)
Some of the results follow. Values were computed here from the reads of four pooled replicates and scatter widely.

What follows are sequences tested against T1, Pho4 (S. cerevisiae) (UniProt P07270) (assay: relative binding free energy (BET-seq); higher = weaker binding). Settings: reference: library average.
T1 sequence: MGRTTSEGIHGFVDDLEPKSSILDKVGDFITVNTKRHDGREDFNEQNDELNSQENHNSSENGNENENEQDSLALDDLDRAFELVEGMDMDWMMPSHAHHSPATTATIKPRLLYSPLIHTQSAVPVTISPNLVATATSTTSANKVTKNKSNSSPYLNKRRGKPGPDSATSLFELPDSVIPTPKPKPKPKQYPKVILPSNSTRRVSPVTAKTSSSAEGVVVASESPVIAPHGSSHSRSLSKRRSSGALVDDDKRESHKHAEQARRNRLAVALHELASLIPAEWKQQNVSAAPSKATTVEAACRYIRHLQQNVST

Row | Sequence | relative binding free energy [kcal/mol]
1 | AGGGTCACGTGAGTAA | 0.28
2 | GTGTTCACGTGGCTAT | 0.22
3 | TAGTGCACGTGTAGAG | 0.09
4 | AGTCGCACGTGTGGGG | 0.07
5 | GTTGTCACGTGCGGTG | 0.05
6 | GTATTCACGTGATCTG | 0.18
7 | ATTATCACGTGATAAA | 0.26
8 | TGAAGCACGTGGTCAG | -0.13
9 | AGGCGCACGTGTGAAG | -0.09
10 | AGACGCACGTGATTGG | 0.19
11 | TTGCGCACGTGAAGTG | 0.18
12 | GGGGTCACGTGCGTCT | 0.12
13 | AAGTACACGTGTCGGT | 0.15
14 | AGGTTCACGTGAATGC | 0.43
15 | CTTGTCACGTGGGGCA | -0.1
16 | TGGGTCACGTGAATCG | 0.26
17 | CTGGCCACGTGTAGGG | -0.11
18 | ATTGTCACGTGGAGAG | 0.06
19 | TTGTTCACGTGATAAA | 0.34
20 | TTTCACACGTGAGATG | 0.33
21 | ACGAGCACGTGGGGAG | -0.25
22 | TTGAACACGTGATGGT | 0.15
23 | TGATGCACGTGGCAGG | -0.11

Row | Sequence | relative binding free energy [kcal/mol]
24 | AGATACACGTGGTATG | 0.03
25 | TTGTCCACGTGAGAGG | 0.15
26 | AAGGGCACGTGGTGGT | -0.11
27 | CGGTACACGTGATGGT | 0.15
28 | CTATTCACGTGGCTGG | 0.27
29 | TTAAACACGTGTGCTT | 0.03
30 | AATGGCACGTGCTATT | 0.08
31 | GGGTGCACGTGAGTAG | 0.24
32 | GAGATCACGTGTGTGT | 0.28
33 | AGGCACACGTGGATGG | 0.04
34 | CGGTCCACGTGTGGGA | 0.07
35 | TGGTTCACGTGGGAAC | 0.23
36 | TGAAACACGTGTTTTA | 0.03
37 | GTATGCACGTGTCTGT | 0.02
38 | ATAGGCACGTGGCATG | -0.14
39 | GTATGCACGTGAAAAT | 0.35
40 | TTTAGCACGTGTAGAT | 0.14
41 | TTGCGCACGTGCTGGG | -0.09
42 | ATTTTCACGTGGCGAG | 0.26
43 | TTTGTCACGTGAGATA | 0.17
44 | GGACTCACGTGAGTTG | 0.46
45 | ATTGGCACGTGAGAGT | 0.09
46 | TGGTACACGTGTTGGC | 0.06

Row | Sequence | relative binding free energy [kcal/mol]
47 | AGTGGCACGTGCTATT | -0.18
48 | CGTTGCACGTGAAGCG | 0.12
49 | GGTTGCACGTGCCTGG | -0.23
50 | TGCTTCACGTGTAAGA | 0.4
51 | GTGCGCACGTGCGGGC | -0.17
52 | ACGAGCACGTGGGTTG | -0.27
53 | ATGCGCACGTGATAGG | 0.02
54 | GGTACCACGTGTTATG | 0.02
55 | TGCGTCACGTGGGGAA | -0.12
56 | AGTTGCACGTGAGGAC | 0.28
57 | AGTGTCACGTGTGATA | 0.17
58 | TGGGGCACGTGCAGTG | -0.15
59 | CGTACCACGTGGGTGG | -0.16
60 | ACAGACACGTGTGGGT | -0.01
61 | TGTCGCACGTGTTTGC | -0.05
62 | ATTCGCACGTGCGGTG | -0.03
63 | TCGTACACGTGGTGTA | -0.09
64 | AGGTTCACGTGGCTGG | 0.23
65 | TGCATCACGTGCTGGG | 0.08
66 | TAGGACACGTGGGCAA | -0.04
67 | GAGAGCACGTGGGTAA | -0.06
68 | TATGTCACGTGATATG | 0.14
69 | GGTGGCACGTGAGCTC | 0.3

Row | Sequence | relative binding free energy [kcal/mol]
70 | ATAGGCACGTGAGTGT | 0.09
71 | TGAAGCACGTGGGGGA | -0.17
72 | GGTAGCACGTGGTCTT | -0.23
73 | TACGTCACGTGTGTGT | 0.1
74 | TCGTTCACGTGATGTA | 0.47
75 | CAATTCACGTGTATTT | 0.27
76 | AAGGACACGTGGCGTT | 0
77 | TAGGTCACGTGATATA | 0.13
78 | TGGCTCACGTGAGTGA | 0.28
79 | CTCGCCACGTGTGGTT | 0.08
80 | TTTTGCACGTGGTTCG | -0.15
81 | ATTTGCACGTGGTGCG | -0.01
82 | GTAGACACGTGATTGA | 0.29
83 | ATGATCACGTGTTCTT | 0.15
84 | ATTAGCACGTGTTATA | -0.29
85 | GGGGTCACGTGCATGT | 0.22
86 | AAGAGCACGTGTTGTA | -0.16
87 | TGCGGCACGTGCGTGC | -0.07
88 | GTGGTCACGTGTAGTT | 0.14
89 | CTGTTCACGTGGTTTT | 0.23
90 | GGTGACACGTGTGGAA | 0.13
91 | TTTAGCACGTGCATTG | 0.01
92 | AGTTGCACGTGGGAAT | -0.05

Row | Sequence | relative binding free energy [kcal/mol]
93 | GGGTCCACGTGGTTGT | -0.02
94 | TATGACACGTGTAAGG | 0.13
95 | GTTTACACGTGGCGGT | 0.13
96 | CCGTGCACGTGTGAGG | -0.04
97 | ATCGGCACGTGGGATT | -0.1
98 | TGGGCCACGTGGCGGT | -0.13
99 | AAAGCCACGTGGTTGG | -0.08
100 | GCATTCACGTGAGTGG | 0.36
101 | GGTGACACGTGTCTAG | 0.08
102 | AGAGGCACGTGTGAGG | 0.01
103 | GGTTACACGTGTGAAT | 0.24
104 | TTATTCACGTGGACGG | 0.28
105 | GTTTTCACGTGAAATG | 0.42
106 | GTTAGCACGTGAATGG | 0.25
107 | CTTAGCACGTGGTTAT | -0.11
108 | TTGCTCACGTGTAGCG | 0.13
109 | GGCGTCACGTGTCTTG | 0.17
110 | AGGTGCACGTGTTATT | 0.05
111 | CATTTCACGTGTGATT | 0.4
112 | GGCTTCACGTGTGTAA | 0.39
113 | AAGTGCACGTGGAAGG | -0.06
114 | TTGTCCACGTGTTTGG | 0
115 | GTTGTCACGTGAAGAT | 0.28
